Test results published in PMC4336329 (PLoS ONE, 2015).
About 14,000 (4.5%) of roughly 310,000 compounds showed an effect of 50% or more. The effect is printed as a negative number. This is one part of the list. Where a SMILES comes first, the peptide text is derived from it. The star is where a group is joined. Tos = Cc1ccc(S(=O)(=O)*)cc1

What follows are compounds tested against human ether-à-go-go-related gene (hERG) potassium channel (human, UniProt Q12809) (assay: primary screen, population patch clamp on CHO cells stably expressing hERG).
Sequence of human ether-à-go-go-related gene (hERG) potassium channel (Q12809 whole entry, looked up): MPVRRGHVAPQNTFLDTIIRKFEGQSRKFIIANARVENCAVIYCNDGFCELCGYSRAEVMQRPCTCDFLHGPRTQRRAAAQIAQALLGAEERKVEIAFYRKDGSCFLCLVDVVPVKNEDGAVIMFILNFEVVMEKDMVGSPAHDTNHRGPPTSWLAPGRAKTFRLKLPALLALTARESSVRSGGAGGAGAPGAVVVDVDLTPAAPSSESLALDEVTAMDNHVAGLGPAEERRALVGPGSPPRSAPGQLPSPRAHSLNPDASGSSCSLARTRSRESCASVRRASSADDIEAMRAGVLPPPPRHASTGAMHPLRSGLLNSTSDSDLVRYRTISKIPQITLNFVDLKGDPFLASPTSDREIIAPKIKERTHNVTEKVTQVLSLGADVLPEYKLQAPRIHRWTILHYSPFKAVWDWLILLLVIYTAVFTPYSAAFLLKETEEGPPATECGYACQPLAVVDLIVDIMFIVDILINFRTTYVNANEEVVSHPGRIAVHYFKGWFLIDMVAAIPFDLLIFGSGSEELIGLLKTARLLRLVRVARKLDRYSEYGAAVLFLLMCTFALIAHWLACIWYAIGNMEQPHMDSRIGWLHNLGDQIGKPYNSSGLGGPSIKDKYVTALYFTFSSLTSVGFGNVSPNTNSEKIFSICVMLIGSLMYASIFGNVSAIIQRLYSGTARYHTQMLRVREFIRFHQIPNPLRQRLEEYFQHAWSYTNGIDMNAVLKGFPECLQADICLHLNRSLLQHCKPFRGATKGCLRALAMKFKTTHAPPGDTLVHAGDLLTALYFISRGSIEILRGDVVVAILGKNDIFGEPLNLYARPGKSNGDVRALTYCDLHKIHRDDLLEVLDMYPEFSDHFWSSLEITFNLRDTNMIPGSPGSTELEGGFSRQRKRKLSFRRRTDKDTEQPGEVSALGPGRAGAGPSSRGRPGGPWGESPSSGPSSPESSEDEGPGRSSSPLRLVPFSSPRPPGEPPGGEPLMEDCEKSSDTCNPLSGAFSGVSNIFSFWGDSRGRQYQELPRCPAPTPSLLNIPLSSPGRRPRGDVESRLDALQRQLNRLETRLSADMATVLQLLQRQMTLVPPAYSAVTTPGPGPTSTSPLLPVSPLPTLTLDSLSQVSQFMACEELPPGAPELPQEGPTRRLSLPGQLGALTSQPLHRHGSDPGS
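Further: peak tail current of the secondary pulse compared with the same well before compound.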

First: Cc1ccc(OCc2nc3ccccc3n2C)cc1
Second: Cc1ccc(-n2cnc3cc(NCc4cccs4)ccc32)cc1
The “hERG current change (%, negative = inhibition) at 10uM” value of the first is lower: -24.2% for the first, -14.4% for the second.

Going from `COc1ccc(OCC(=O)N(Cc2ccco2)C2CCS(=O)(=O)C2)cc1` (stereo not shown) to `CN(C)c1ccc(C(=S)NCc2ccco2)cc1`, the “hERG current change (%, negative = inhibition) at 10uM” value rises from -18.9% to 15%.

First: CCOC(=O)C1=C(C)NC(C)=C(C(=O)OCC)C1C(=O)OCC(=O)N1CCCCC1C (stereo not shown)
Second: CCOC(=O)c1cc(CC)sc1NC(=O)CN1CCN(C(=O)c2ccco2)CC1
The “hERG current change (%, negative = inhibition) at 10uM” value of the first is higher: 2% for the first, -67.2% for the second.

Going from `COCCNC(=O)c1c(N)sc2c1CCCC2` to `COc1cccc(C(=O)NCCS(=O)(=O)NCC2CCCO2)c1` (stereo not shown), the “hERG current change (%, negative = inhibition) at 10uM” value rises from -0.506% to 10.8%.

Compared with `c1ccc(-n2ncc3c(NCC4CCCO4)ncnc32)cc1` (stereo not shown), `O=C(NCC1CCCN1S(=O)(=O)c1cccs1)c1ccccc1` (stereo not shown) is higher in “hERG current change (%, negative = inhibition) at 10uM” value: -5.26% for the first, 16.5% for the second.

Compared with `CC(=O)N1N=C(N)SC1(C)C`, `CCCc1c(C(=O)OCC)sc(N)c1C#N` is higher in “hERG current change (%, negative = inhibition) at 10uM” value: 8.14% for the first, 20.9% for the second.

Compared with `CCn1c(SCc2nc3cc(OC)c(OC)cc3c(=O)[nH]2)nnc1-c1ccncc1`, `COc1cc(-c2nnc(-c3ccccc3)o2)cc(OC)c1OC` is lower in “hERG current change (%, negative = inhibition) at 10uM” value: -2.93% for the first, -14.7% for the second.

First: Cc1ccc(C)c(NC(=O)CCN2CC(C)OC(C)C2)c1 (stereo not shown)
Second: COc1ccccc1NC(=O)CCNS(=O)(=O)c1ccc2c(c1)CC(C)N2C(=O)C1CC1 (stereo not shown)
The “hERG current change (%, negative = inhibition) at 10uM” value of the first is lower: 1.59% for the first, 17.6% for the second.

Going from `COc1cccc(C(=O)O/N=C(\N)c2ccc(C)cc2)c1` to `COc1ccc(OC)c(NC(=O)COC(=O)CN(C)S(=O)(=O)c2ccc(C)cc2)c1`, the “hERG current change (%, negative = inhibition) at 10uM” value falls from -6.05% to -37.1%.

First: COc1cccc(NC(=O)CN(c2cccc(OC)c2)S(C)(=O)=O)c1
Second: COc1ccc(NC(=O)NCc2ccncc2)c(OC)c1
The “hERG current change (%, negative = inhibition) at 10uM” value of the first is lower: -4.7% for the first, 2.58% for the second.

First: O=C1c2ccccc2C(=O)N1Cc1nn2c(-c3ccc(Cl)cc3)nnc2s1
Second: Cc1ccc(-c2c(C(=O)NCc3ccc(F)cc3)oc(=O)c3ccccc23)cc1
The “hERG current change (%, negative = inhibition) at 10uM” value of the first is higher: 0.764% for the first, -13% for the second.

Compared with `Cc1ccc(S(=O)(=O)N[C@@H](CO)C(=O)N[C@@H](Cc2ccc(O)cc2)C(=O)O)cc1` (Tos-Ser-Tyr-OH), `COc1ccc(C/C(C)=N/NS(=O)(=O)c2ccc(Br)cc2)cc1` is lower in “hERG current change (%, negative = inhibition) at 10uM” value: 15.7% for the first, -14.9% for the second.

First: O=C1C=C(NC2CC2)C2(CCCCC2)O1
Second: COC1CCN(C(=O)C2CCC(=O)N(C3CCCCCC3)C2)CC1 (stereo not shown)
The “hERG current change (%, negative = inhibition) at 10uM” value of the first is lower: 4.24% for the first, 19.1% for the second.

Compared with `O=C(c1ccc(N2CCCC2)c([N+](=O)[O-])c1)N1CCN(c2ccccn2)CC1`, `CC1Cc2ccccc2N1C(=O)c1ccc(N2CCCCC2)c([N+](=O)[O-])c1` (stereo not shown) is higher in “hERG current change (%, negative = inhibition) at 10uM” value: -21.8% for the first, 2.86% for the second.

Going from `Cc1nc(S(=O)(=O)c2ccc(Cl)cc2)nc2c1CCC2` to `O=S(=O)(Nc1ccccc1F)c1ccc2nsnc2c1`, the “hERG current change (%, negative = inhibition) at 10uM” value falls from -5.35% to -19.9%.

Compared with `CN(Cc1ccccc1Br)C(=O)CSc1nnnn1C1CC1`, `CC1CCCCC1NC(=O)CN1C(=O)NC(C)(c2cccc(Br)c2)C1=O` (stereo not shown) is higher in “hERG current change (%, negative = inhibition) at 10uM” value: -8.75% for the first, 2.42% for the second.

Compared with `CC(C)c1onc(C(=O)N2CCN(C(c3ccccc3)c3ccccc3)CC2)c1[N+](=O)[O-]`, `O=C(CSC1=NCCS1)NC(c1ccccc1)c1ccccc1` is higher in “hERG current change (%, negative = inhibition) at 10uM” value: 13.6% for the first, 17.1% for the second.

First: COc1cccc(NS(=O)(=O)CC23CCC(CC2=O)C3(C)C)c1 (stereo not shown)
Second: COc1ccc(CNC(=O)C2CCN(S(=O)(=O)c3c(C)n[nH]c3C)CC2)cc1
The “hERG current change (%, negative = inhibition) at 10uM” value of the first is lower: 8.25% for the first, 17.5% for the second.

Compared with `COc1ccccc1CNn1c(-c2cccc(C)c2)nc2ccccc2c1=O`, `COc1ccccc1NC(=O)COc1ccc2ccccc2c1` is higher in “hERG current change (%, negative = inhibition) at 10uM” value: -11% for the first, 4.02% for the second.

First: CCOC(=O)CSC1=C(C#N)C(c2ccc(C)cc2)C2=C(CCCC2=O)N1 (stereo not shown)
Second: Cc1ccc(CNC(=O)CN(C(=O)C2(C)CC(=O)N=C3C=CC=CN32)c2ccccc2)cc1 (stereo not shown)
The “hERG current change (%, negative = inhibition) at 10uM” value of the first is lower: -22.1% for the first, 28.4% for the second.

Compared with `Cc1cc(NC(=O)c2ccccc2F)cc(C)c1OCC(=O)N1CCOCC1`, `Cc1cccc(OC(C)C(=O)Nc2ccccc2C(=O)N2CCCCC2)c1` (stereo not shown) is higher in “hERG current change (%, negative = inhibition) at 10uM” value: -1.38% for the first, -0.472% for the second.

Compared with `Cc1cc(NC(=O)COc2ccc3ccccc3c2)no1`, `Cc1cc(NC(=O)CN2CCC(O)(c3cccc(F)c3)CC2)no1` is lower in “hERG current change (%, negative = inhibition) at 10uM” value: 12.3% for the first, -1.66% for the second.

Going from `CC1(C)CC(=O)C=C(NCc2cccs2)C1` to `CCc1ccc(C(=O)N/N=C/c2ccncc2)s1`, the “hERG current change (%, negative = inhibition) at 10uM” value rises from -11.8% to 1.7%.

Compared with `CCOC(=O)Cn1c(S(=O)(=O)Cc2ccc(Cl)cc2)nc(-c2ccccc2)c1-c1ccccc1`, `CN1C(=O)C(O)(c2sc(N)nc2-c2ccccc2)c2ccccc21` (stereo not shown) is higher in “hERG current change (%, negative = inhibition) at 10uM” value: -3.38% for the first, 2.39% for the second.

First: CCOC(=O)N1CCC(NC(=S)Nc2ccc3nc(N4CCN(CC)CC4)cc(C)c3c2)CC1
Second: CCOc1ccc(-c2nc(CN3CCCC(C(=O)N4CCOCC4)C3)c(C)o2)cc1 (stereo not shown)
The “hERG current change (%, negative = inhibition) at 10uM” value of the first is higher: 17.6% for the first, -26.5% for the second.

Going from `CC(=O)c1c(C)[nH]c(C(=O)OCCOc2ccccc2)c1C` to `Cc1cc(C(=O)NNC(=O)CN2C(=O)NC(C)(c3ccccc3)C2=O)c(C)o1` (stereo not shown), the “hERG current change (%, negative = inhibition) at 10uM” value rises from -11.5% to 4.77%.

Compared with `CCn1nc(C(=O)OCC(=O)N2CC(=O)Nc3ccccc32)c2ccccc2c1=O`, `O=C(CCNC(=O)Cn1ccc2ccccc2c1=O)NCCN1CCN(c2cccc(Cl)c2)CC1` is lower in “hERG current change (%, negative = inhibition) at 10uM” value: -0.7% for the first, -7.83% for the second.

Compared with `COC(=O)c1ccc(NS(=O)(=O)N(C)C)cc1`, `CN(C)/C(=N\S(=O)(=O)c1ccccc1)c1ccc(Cl)cc1` is higher in “hERG current change (%, negative = inhibition) at 10uM” value: 0.423% for the first, 14.3% for the second.

First: COc1cc2cc(CCOC(=O)CCCC(=O)O)oc(=O)c2cc1OC
Second: COc1cc(SC)ccc1C(=O)Nc1ncc(Cl)cc1Cl
The “hERG current change (%, negative = inhibition) at 10uM” value of the first is higher: 16.5% for the first, 3.04% for the second.

First: CN(C)c1oc(-c2ccco2)nc1C#N
Second: Cc1ccc(N(Cc2ccc([N+](=O)[O-])cc2)C(=O)c2ccco2)cc1C
The “hERG current change (%, negative = inhibition) at 10uM” value of the first is higher: -14.1% for the first, -24.1% for the second.

First: O=C(c1cc(F)ccc1F)C1CCCN(C(=O)CCN2CCCCO2)C1 (stereo not shown)
Second: CC1CCCN(C(=O)c2ccc(Cl)c(S(=O)(=O)N3CCCCCC3)c2)C1 (stereo not shown)
The “hERG current change (%, negative = inhibition) at 10uM” value of the first is higher: 15% for the first, -76.3% for the second.

Going from `Cc1c(NC(=O)c2c(N)n(-c3ccccc3)c3nc4ccccc4nc23)c(=O)n(-c2ccccc2)n1C` to `COc1cc(C(c2c(O)c3ccccc3oc2=O)c2c(C)n(C)n(-c3ccccc3)c2=O)ccc1O` (stereo not shown), the “hERG current change (%, negative = inhibition) at 10uM” value rises from -23.1% to 24%.

Compared with `Cc1cn[nH]c1.Cl`, `Cc1ccc(C(=O)NC(=S)NCc2cccnc2)cc1C` is lower in “hERG current change (%, negative = inhibition) at 10uM” value: 4.39% for the first, -33% for the second.

Compared with `O=C(NCC(=O)N(Cc1ccccc1)C(C(=O)NC1CCCC1)c1ccncc1)c1ccco1` (stereo not shown), `O=C(Nc1cccnc1)OCc1ccccc1` is lower in “hERG current change (%, negative = inhibition) at 10uM” value: 5.71% for the first, 5.19% for the second.

Compared with `COc1ccc(NC(=O)c2ccc(S(=O)(=O)N3CC(C)CC(C)C3)cc2)cc1S(N)(=O)=O` (stereo not shown), `CCOCCCNS(=O)(=O)c1ccc(NC(=O)c2ccc([N+](=O)[O-])cc2Cl)cc1` is lower in “hERG current change (%, negative = inhibition) at 10uM” value: 25.2% for the first, -22.3% for the second.

First: CN(CC(=O)Nc1cc(S(=O)(=O)N2CCOCC2)ccc1Cl)C1CCS(=O)(=O)C1 (stereo not shown)
Second: Cc1ccc(S(=O)(=O)NCCC(=O)NCCN2CCCCCC2)cc1
The “hERG current change (%, negative = inhibition) at 10uM” value of the first is higher: 18.7% for the first, 5.11% for the second.

Going from `CN1C(=S)SC(N2OC3C(=O)N(c4ccccc4)C(=O)C3C2c2ccc(Cl)cc2)C1(C)C` (stereo not shown) to `O=C1C2CCCN2C(c2ccc(Cl)cc2)N1c1nccs1` (stereo not shown), the “hERG current change (%, negative = inhibition) at 10uM” value falls from 0.687% to -0.11%.

Going from `Cc1ccc(NCc2nnc(SCC(=O)N3c4ccccc4Sc4ccccc43)o2)c(C)c1` to `Cc1ccc(NC(=O)c2sc3ncnc(N4CCN(c5ccccn5)CC4)c3c2C)c(C)c1`, the “hERG current change (%, negative = inhibition) at 10uM” value falls from -0.533% to -48.4%.

Compared with `CC(C)(CCl)C(=O)Nc1ccc(OC(F)(F)F)cc1`, `O=c1[nH]c2cc(Cl)ccc2n(CCNc2ncc(C(F)(F)F)cc2Cl)c1=O` is higher in “hERG current change (%, negative = inhibition) at 10uM” value: -24.7% for the first, 3.01% for the second.

Compared with `O=C(NCCCNC(=O)c1cccnc1)c1ccc(Cl)cc1`, `Oc1oc(-c2ccccc2)nc1C=NCc1ccncc1` is higher in “hERG current change (%, negative = inhibition) at 10uM” value: -23.5% for the first, -7.6% for the second.

Going from `COc1cccc(C2c3[nH]c4ccccc4c3CCN2Cc2cccc(C)n2)c1` (stereo not shown) to `COc1ccccc1N1CCN(C(c2ccc(C)cc2)c2nnnn2C(C)C)CC1` (stereo not shown), the “hERG current change (%, negative = inhibition) at 10uM” value rises from -26.6% to -5.61%.

Compared with `CC(C)c1ccc[n+](-c2nc([O-])sc2C=O)c1`, `CCCc1cc(-c2n[nH]c(=S)n2Cc2ccccc2)cs1` is lower in “hERG current change (%, negative = inhibition) at 10uM” value: 14.7% for the first, -15% for the second.

Compared with `CCn1nc(NS(=O)(=O)c2ccc(NC(C)=O)cc2)c2cc3ccc(C)cc3nc21`, `O=c1[nH]c(=O)n(Cc2ccco2)c2c1C(C(F)(F)F)(C(F)(F)F)N=C(c1ccc(F)cc1)N2` is lower in “hERG current change (%, negative = inhibition) at 10uM” value: 4.59% for the first, 1.16% for the second.

Going from `Cc1ccccc1C1NC(c2ccccc2C)C(C)C(=O)C1C` (stereo not shown) to `CC1(C)O[C@@H]2[C@@H](CO[C@@]3(COS(N)(=O)=O)OC(C)(C)O[C@@H]23)O1`, the “hERG current change (%, negative = inhibition) at 10uM” value falls from 15.8% to 13.9%.
